“And” between values parts separate entries of the source, which are not always exact repeats. Equal entries are not always repeated. The campaign covered roughly 110,000 compounds. About 230 (0.21%) showed an effect of 50% or more. The list shows a part of the results.
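Also: 30 min substrate incubation versus DMSO and 10 µM JCP410 controls.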

The target in the test is DPAP1 (Plasmodium falciparum, UniProt Q8IIJ9). Nature of the test: primary screen, percent inhibition; read by cleavage of a fluorogenic dipeptide substrate; higher = more effect of the substance. On the set-up: species or system P. falciparum D10 trophozoite lysates; single well.
DPAP1, sequence (Q8IIJ9 whole entry, looked up): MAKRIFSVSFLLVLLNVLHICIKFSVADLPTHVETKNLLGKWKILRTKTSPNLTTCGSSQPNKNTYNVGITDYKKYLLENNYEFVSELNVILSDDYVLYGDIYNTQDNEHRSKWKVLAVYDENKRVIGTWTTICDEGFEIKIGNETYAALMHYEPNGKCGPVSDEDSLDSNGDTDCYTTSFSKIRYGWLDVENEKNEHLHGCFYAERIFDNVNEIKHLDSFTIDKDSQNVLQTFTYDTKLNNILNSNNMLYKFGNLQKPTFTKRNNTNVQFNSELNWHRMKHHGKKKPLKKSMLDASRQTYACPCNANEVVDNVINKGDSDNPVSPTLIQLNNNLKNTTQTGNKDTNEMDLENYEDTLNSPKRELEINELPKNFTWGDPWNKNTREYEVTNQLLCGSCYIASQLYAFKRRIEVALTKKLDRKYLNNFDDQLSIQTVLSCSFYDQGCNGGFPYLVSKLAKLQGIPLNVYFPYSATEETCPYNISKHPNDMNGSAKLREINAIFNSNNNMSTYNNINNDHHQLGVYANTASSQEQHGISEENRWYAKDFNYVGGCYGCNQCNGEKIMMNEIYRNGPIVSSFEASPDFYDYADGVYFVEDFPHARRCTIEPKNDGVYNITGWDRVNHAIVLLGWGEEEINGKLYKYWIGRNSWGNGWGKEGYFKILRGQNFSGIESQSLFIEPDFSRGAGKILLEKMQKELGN
Turning to `NC(=O)c1c(NC(=O)Nc2ccc(Cl)c(Cl)c2)sc2c1CCCC2`, the “% Inhibition @ 10 uM” value was 0.661%.
`Cc1cc(C)nc(NS(=O)(=O)c2ccc(NS(=O)(=O)c3ccc(F)cc3)cc2)n1`: the “% Inhibition @ 10 uM” value is on record as -7%.
With `COc1ccccc1N(CC(=O)Nc1ccccc1C)S(C)(=O)=O`, the “% Inhibition @ 10 uM” value is -9.26%.
As for `O=C(O)c1cc(C(=O)O)cc(N2C(=O)c3ccc([N+](=O)[O-])cc3C2=O)c1`, the figure is 1.64%; as for `CCOC(=O)C1=C(CN(Cc2ccco2)C2CCCC2)NC(=O)NC1c1ccc(Cl)cc1` (stereo not drawn), 0.708%; as for `COc1ccc2[nH]c(SCC(=O)NCCC34CC5CC(CC(C5)C3)C4)nc2c1`, 9.61%.
`O=C(COCc1cc(-c2ccco2)on1)Nc1cc(-c2cccc(Cl)c2)no1`: the “% Inhibition @ 10 uM” value turned out to be 5.8%.
Regarding `CC1CCN(C(=O)c2ccc(C/N=c3/c(N4CCC(C)CC4)c(O)c3=O)cc2)CC1`, the “% Inhibition @ 10 uM” value is recorded as 1.15%.
Turning to `Fc1ccc(N2CCN(Cc3cccc(Br)c3)CC2)cc1`, the “% Inhibition @ 10 uM” value was determined as 3.16%.
With `Cc1s/c(=N\C(=O)c2ccco2)n(C)c1-c1ccc(Cl)cc1`, the “% Inhibition @ 10 uM” value is -1.73%.
As to `CCn1cc(C(CC(=O)O)C(=O)O)c2ccccc21` (stereo not drawn), the “% Inhibition @ 10 uM” value is reported as -5.41%.
Take `O=C(Cn1nc(Cc2cccnc2)c2ccccc2c1=O)NCC1COc2ccccc2O1` (stereo not drawn): the “% Inhibition @ 10 uM” value is -4.69%.
For `CCO/C(O)=C1\C(C)=NC2=C(C(=O)CCC2)C1c1ccccc1C(F)(F)F` (stereo not drawn), the “% Inhibition @ 10 uM” value is given as 16.8%.
For `O=S(=O)(c1ccc(Cl)cc1Cl)c1nc(N2CCOCC2)s[n+]1Cc1ccccc1`, the “% Inhibition @ 10 uM” value is -5.85%.
For `CC(C)CC(NC1CCS(=O)(=O)C1)C(=O)O` (stereo not drawn), the “% Inhibition @ 10 uM” value is -2.65%.
Consider `CC(CC#CCN1CCCCC1)OC(C)(C)C` (stereo not drawn), for which the “% Inhibition @ 10 uM” value is on record as -5.89%.
As to `CCOc1ccc(N(CC(=O)Nc2ccc3c(c2)OCO3)S(=O)(=O)c2ccc(C)cc2)cc1`, the “% Inhibition @ 10 uM” value is on record as 4.25%.
For `COc1ccc(CNC(=O)CCCN2C(=O)c3ccccc3Sc3ncccc32)cc1`, the “% Inhibition @ 10 uM” value is recorded as -1.7%.
Regarding `Cc1ccccc1/N=c1\scc(-c2ccccc2)n1CCO`, the “% Inhibition @ 10 uM” value is listed as 2.55%.
Take `Cc1c(CC(=O)N2CCOCC2)c(=O)oc2cc(O)c(Cl)cc12`: the “% Inhibition @ 10 uM” value is -10.3%.
`Cc1nn(CCCC(=O)NCC(C)c2ccccc2)c(=O)c2cc3sccc3n12` (stereo not drawn): the “% Inhibition @ 10 uM” value is listed as -5.19%.
Take `CCc1c(C)nc2nncn2c1NCc1ccc(C)cc1`: the “% Inhibition @ 10 uM” value was -0.808%.
Take `COc1ccc(-c2ccccc2N)c(OC)c1`: the “% Inhibition @ 10 uM” value was -1.38%.
Turning to `CCOCCCNC(=O)c1csc2c1CCCC2`, the “% Inhibition @ 10 uM” value was determined as 0.277%.
The value for `Cn1c(COc2ccccc2Br)nc2ccccc21` was -1.29%; that for `Cc1ccc(C2C(C#N)=C(N)N(c3nc[nH]n3)C3=C2C(=O)CC(C)(C)C3)cc1` (stereo not drawn) was -6.92%.
In the case of `COc1ccc(-c2cc(C(F)(F)F)nc(SCC(=O)NC(C)(C)C)n2)cc1`, the “% Inhibition @ 10 uM” value was found to be 25.2%.
With `O=C(CCn1nc(-c2ccccc2)ccc1=O)N1CCC2(CC1)OCCO2`, the “% Inhibition @ 10 uM” value was -0.0542%.
Regarding `Cc1ccc(Cn2c(=O)c3ccccc3n3c(CCC(=O)NC4CCC(C)CC4)nnc23)cc1` (stereo not drawn), the “% Inhibition @ 10 uM” value is listed as -0.692%.
In the case of `COc1cc(/C=C2/SC(=O)N(CC(=O)N3CCOCC3)C2=O)ccc1C`, the “% Inhibition @ 10 uM” value is recorded as -1.22%.
As for `CCc1cccc(CC)c1NC(=O)Cn1cnc2scc(-c3ccc(OC)cc3)c2c1=O`, the “% Inhibition @ 10 uM” value is 5.37%.
Turning to `O=C1c2ccccc2C(=O)N1c1nncs1`, the “% Inhibition @ 10 uM” value amounted to 0.708%.
The value for `Cc1ccc2nc(-c3cc(N)ccc3Cl)oc2c1` was 0.756%; that for `O=C(NC(Cc1c[nH]c2ccccc12)C(=O)O)c1ccccc1` (stereo not drawn) was 4.93%; that for `COc1ccc2c(c1)c(=O)oc1c(C)c(OCc3cc(C(=O)O)oc3C)ccc12` was 3.47%.
On to `COc1ccc(-c2nc(CN3CCCC(C(=O)NC4CCCCC4C)C3)c(C)o2)cc1` (stereo not drawn), for which the “% Inhibition @ 10 uM” value came to 0.689%.
As for `COc1ccc(OC)c(C2c3cccn3CCN2C(=S)NC(C)(C)C)c1` (stereo not drawn), the figure is -3.18%; as for `Nc1cc(O)nc(SCc2ccc(Cl)cc2Cl)n1`, -7.18%; as for `Cc1ccc(CNC(=O)c2nnc(Cc3ccc4c(c3)OCO4)o2)cc1`, 4.47%.
As for `Brc1ccc(CN2CCOCC2)o1`, the figure is -2.95%; as for `CC(C)Cc1nnc2sc(NC(=O)C(C)Oc3ccccc3)nn12` (stereo not drawn), 7.58%; as for `Cc1ccc(Nc2nn(C)c3c(C)ncc(C)[n+]23)cc1`, -0.545%.
Take `Cc1ccc(-n2nc(C)c3c(C(=O)NCCN4CCc5ccccc5C4)cc(C)nc32)cc1`: the “% Inhibition @ 10 uM” value is recorded as -3.1%.
Take `Cc1ccc(/C(O)=C/C=N/c2ccc(S(=O)(=O)Nc3onc(C)c3C)cc2)cc1`: the “% Inhibition @ 10 uM” value was 3.92%.
With `C=CCn1c2ccccc2n2nc(C)c(C(C)=O)c12`, the “% Inhibition @ 10 uM” value turned out to be 4.88%.
With `CCCOc1ccc(C2=CSC3=NCCN23)cc1`, the “% Inhibition @ 10 uM” value is reported as -0.833%.
On to `CC1=C(C(=O)Nc2ccccc2)C(c2cccnc2)C(C#N)=C(SCC(=O)Nc2ccc(F)cc2)N1` (stereo not drawn), for which the “% Inhibition @ 10 uM” value is recorded as -0.305%.
The value for `CC(C)(C)OC(=O)N[C@@H](Cc1cc(I)c(N)c(I)c1)C(=O)NCC#N` was 7.39%; that for `Cc1cc(Oc2nc3c(C)cccn3c(=O)c2/C=C(\C#N)C(=O)N2CCCCC2)ccc1Cl` was -1.43%; that for `COc1cc(Cl)cc2c1OC1(C=C2)c2ccccc2N(C)c2ccccc21` was -4.31%.
In the case of `COCc1[nH]nc2c1C(c1ccc(F)cc1)C(C#N)=C(N)O2` (stereo not drawn), the “% Inhibition @ 10 uM” value came out at 0.385%.
As for `COCCNC(=O)c1cc(-c2ccc(Cl)c(Cl)c2)on1`, the figure is -7.85%; as for `Cc1ccc2c(c1)C(c1ccccc1)N(C(=O)c1ccccc1)CC(=O)N2` (stereo not drawn), -1.66%.
As for `CCCO/C(O)=C1/C(C)=NC2=C(C(=O)CCC2)C1c1ccc(CC)cc1` (stereo not drawn), the figure is 3.18%.
For the compound `O=C(NO)c1ccc(C(=O)N(C2CCCCC2)C2CCCCC2)cc1`, the “% Inhibition @ 10 uM” value is reported as -0.591%.
In the case of `CC1CCC(NC(=O)CN2C(=O)C(c3ccccc3)Oc3cccnc32)CC1` (stereo not drawn), the “% Inhibition @ 10 uM” value is reported as -0.397%.
As to `Cc1cccc(-n2c(C)nc3ccccc3c2=O)n1`, the “% Inhibition @ 10 uM” value was -7.94%.
As to `CN(Cc1ccoc1)C1CCCCC1`, the “% Inhibition @ 10 uM” value was -4.98%.
With `O=C(/C=C/c1ccc2c(c1)OCO2)NCCc1ccccc1`, the “% Inhibition @ 10 uM” value was 0.736% and 2.94%.
For the compound `CCC(=O)c1c(-c2ccccc2)nc2n(C)c3ccccc3n12`, the “% Inhibition @ 10 uM” value is given as -5.23%.
Turning to `Cc1ccccc1-c1nc(CN2CCCC(C(=O)NC3CCCCCC3)C2)c(C)o1` (stereo not drawn), the “% Inhibition @ 10 uM” value is -4.95%.
`Cc1cc(OCC(=O)N[C@@H](C)c2ccccc2)ccc1Br`: the “% Inhibition @ 10 uM” value is on record as -2.85%.
For the compound `O=C(c1cc2ccccn2n1)N1CCN(Cc2ccccc2)CC1`, the “% Inhibition @ 10 uM” value was -3.45%.

These data come from PMC6919601, “Identification of Plasmodium dipeptidyl aminopeptidase allosteric inhibitors by high throughput screening” (PLoS ONE, 2019).
